Reference: PubChem BioAssay AID1508623 (National Center for Advancing Translational Sciences (NCATS), 2021)
About 450 (0.94%) of roughly 48,000 compounds were called active. Another 19% or so got no clear call; they are omitted. Calls follow the shape of the dose curve; as a rule, active = well fitted inhibition curve with a large enough effect; inconclusive = small, poorly fitted or top-dose-only effect; inactive = no such curve, though single readings can be large or run the other way. Some of the results follow.

Experiment: Primary qHTS for Identification of Small Molecule Inhibitors of Huntingtin Promoter Activity; also: nearly all actives have a fitted effect of over 50% in size
Details: HEK293 HTT promoter firefly luciferase reporter (activity 0% = vehicle and -100% = no light), 24 h; series mostly up to 57.5 µM; activity change, negative = inhibition: at the top concentration
Procedure, shortened: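 Firefly luciferase signal from promoter-reporter HEK293 cells was scaled between vehicle (0%) and zero RLU (-100%). Compounds were tested at final concentrations of up to 57.5 uM over 24 h at 37 degrees C. PTC124 at 50 uM final served as control inhibitor.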

Activity change, negative = inhibition, inactive:
CCn1cc(C(=O)N(C)c2cc(C)ccc2C)c2cc(OC)c(OC)cc2c1=O -11.6%
COc1cc2c(C(=O)N3CCN(c4ccc(F)cc4)CC3)cn(CC(C)C)c(=O)c2cc1OC -7.04%
CCOc1ccccc1NC(=O)C1CCCN(S(=O)(=O)c2cccs2)C1 (configuration not stated) -19.9%
COc1ccccc1Cc1nc2ccccc2nc1SCC(=O)N1CCCCC1 -21.1%
COc1ccc(NC(=O)c2sc3nc4n(c(=O)c3c2C)CCC4)c(OC)c1 -5.51%
COc1ccc(C(=O)Nc2cccc(OCc3cc(=O)n4c5c(sc4n3)CCCC5)c2)cc1OC 1.99%
CCc1ccc(NC(=O)Cn2c(=O)n(Cc3ccc(C)cc3)c(=O)c3cccnc32)cc1 -0.318%
Cc1ccccc1C(=O)Nc1nnc(S(=O)(=O)N2CCc3ccccc32)s1 2.73%
O=C(CCS(=O)(=O)c1cc(Br)cc2c1N(C(=O)C1CC1)CC2)N1CCN(c2ccccc2)CC1 -4.14%
CNC(=O)C1CCN(C(=O)N2CC(C)Oc3ccc(Cl)cc32)CC1 (configuration not stated) -2.6%
CCOC(=O)C1CCCN(C(=O)c2ccccc2NC(=O)c2nsc3ccccc23)C1 (configuration not stated) 6.76%
CCOc1ccc(C2CC(=O)c3c([nH]c(C(=O)OCCOc4ccccc4)c3C)C2)cc1 (configuration not stated) -30.8%
Cc1nnc2c3ccccc3nc(N3CCN(c4ccccc4)CC3)n12 -26.3%
O=C(c1ccc2c(c1)N(Cc1cccc(Cl)c1)C(=O)c1ccccc1S2(=O)=O)N1CCCC1 -39.3%
N#Cc1c(-c2ccccc2)cc(-c2ccccc2)nc1SCC(O)CS(=O)(=O)Cc1ccccc1 (configuration not stated) -33.2%
O=C(Cn1cc(SCc2ccc(F)cc2)c2ccccc21)N1CCCCCC1 -11.8%
O=C(CCc1ccccc1)N(Cc1cccnc1)c1nc2ccc(F)cc2s1 -13%
CCN(CC)C(=O)CSc1nc2c(c(=O)n(C)c(=O)n2C)n1Cc1ccccc1 14.4%
Cc1ccc2c(CNC3CCCC3)c(C(=O)O)n(Cc3ccc(F)cc3)c2c1 -14.1%
CN(C(=O)CSc1nc2ccccc2n1CC(=O)N(C)C1CCCCC1)c1ccccc1 -0.198%
Cc1cccc(NC(=O)CN2C(=O)CCn3nc(-c4cccn4C)cc32)c1C -2.9%
COc1cccc(NC(=O)Nc2ccc3nc(N4CCN(C)CC4)cc(C)c3c2)c1 8.92%
CCCCNC(=O)CCn1c(=O)c2ccccc2n(Cc2cccc(Cl)c2)c1=O -8.55%
O=C(CSc1nc2ccsc2c(=O)n1-c1ccc(Br)cc1)NCc1ccccc1 -15.3%
O=C(CSc1nnc2scc(-c3ccccc3)n12)Nc1ccc(Cl)cc1 -5.15%
CCOc1ccc(CNC(=O)CCn2c(=O)c3cccn3c3ccc(F)cc32)cc1 -8.24%
CCOC(=O)c1ccc(NC(=O)c2ccc(CN3C(=O)CCn4nc(C)cc43)cc2)cc1 -14%
